The RNAGym collection of RNA variant scans (doi:10.7554/elife.90254)
Read counts are not given, so values of variants with three or more changes are uncertain.

B1: OR4K15 (parent)
chain: GUUAACGGUCAUAGGCCAUGGAAACUAGGAGCACCAUUUCGCUGCCAGUGAAGAAAUGAACAAAGAAAAUCUGGGCCAGGCAGGCAUCAAAAGAAAUAGUCUUGCGCUCAACCAGAAAGUCUGUAAUCAUUUUAAGGGUA

Variants of: B1
Experiment: self-cleavage, relative activity (ratio to wild type); higher = more cleavage; in vitro, sequencing; the parent is a self-cleaving ribozyme

Variant | self-cleavage
GUUAACGGUCAUAGGCCAUGGGAACUAGGGGCACCAUUUCGCUGCCAGUGAGGAAACGAACAAAGAAAAACUGGGCCAGGCGGGCAUCAAUAGAAAUAGUCUUGCGCUCAACCAGAAAGUCUGUAAUCAUUUUAAGGGUA | 0.2
GUUAACGGUCAUAGGCCAUGGGAACUAGGGGCACCAUUUCGCUGCCAGUGAAGGAAUGAACAAAGAAAAUCUGGGCCUGGCAGGCAUCAAAAGAAAUAGUCUUGCGCUCAACCAGAAAGUUUGUAAUCAUUUUAAGGGUA | 0.51
GUUAACGGUCAUAGGCCAUGGGAACUAGGGGCACCAUUUCGCUGCCAGUGAAGAAAUGAACGAAGAAAAUCUGGGCCAGGCAGGCAUCAAAAGAAAUAGUCUUGCGCUCAACCAGAAAGUCUGUAAUCAUUUUAAGGGUA | 1.85
GUUAACGGUCAUAGGCCAUGGGAACUAGGGGCACCAUUUCGCUGCCAGUGAAGAAAUGAACAAAGAAAAUCUGGGCCAGGCAGGCAUCAAAAGAAAUGGUCUUGCGCUCAACCAGAAAGUCUGUAAUCAUUUUAAGGGUA | 0.67
GUUAACGGUCAUAGGCCAUGGGAACUAGGGGCACCACUUCGCUGCCAGUGAAGAAAUGAACAAAGAAAAUCUGGGCCAGGCAGGCAUCAAAAGAAAUAGUCUUGCGCUCAACCAGAAUGUCUGUAAUCAUUUUAAGGGUG | 0.1
GUUAACGGUCAUAGGCCAUGGGAACUAGGGGCACCAUCUCGCUGCCAGUGAAGAAAUGAACAAAGAAAAUCUGGGCCAGGCAGGCAUCAAAAGAAAUAGUCUUGCGCUCAUCCAGGAAGUUUGUUAUCAUUUUAUGGGUA | 0.16
GUUAACGGUCAUAGGCCAUGGGAACUAGGGGCACCAUUUCGCUGCCAGUGAAGAAACGAACAAAGAAAAUCUGGGCCAGGCAGGCAUCAAAAGAAAUAGUCUUGCGCUCAACCAGAAAGUCUGUAAUCAUUUUAAGGGUA | 0.61
GUUAACGGUCAUAGGCCAUGGGAACUAGGGGCACCAUUUCGCUGCCAGUGAAGAAAUGAACAAAGAAAAUCUGGGCCAGGCAGGCAUCAAAAGAAAUAGUCCUGCGCUCAACCAGAAAGUCUGUAAUCAUUUUAAGGGUG | 1.58
GUUAACGGUCAUAGGCCAUGGGAACUAGGUGCACCAUUUCGCUGCCAGUGAAGAAAUGAACAAAGGAAAUCUGGGCCAGGCAGGCAUCAAAAGAAAUAGUCUUGCGCUCAACCAGAAAGUCUGUAAUCAUUUUAAGGGUA | 1.7
GUUAACGGUCAUAGGCCAUGGGAACUAGGUGCACCAUUUCGCUGCCAGUGAAGAAAUGAACAAAGAAAAUCUGGGCCAGGCAGGCAUCAAAAGAAUUAGUCUUGCGCUCAACCAGAAAGUCUGCAAUCAUUUUAAGGGUA | 0.62
GUUAACGGUCAUAGGCCAUGGGAACUAGGUGCACCAUUUCGCUGCCAGUGAAGAAAAGAACAAAGAAAAUCUGGGCCAGGCAGGCGUCAAAAGAAAUAGUCUUGCGCUCAACCAGAAAGUCUGUAAUCAUUUUAAGGGUA | 0.3
GUUAACGGUCAUAGGCCAUGGGAACUAGGAGCCCCAUUUCGCUGCCAGAGAAGAAAUGAACAAAGAAGAUCUGGGCCAGGCAGGCAUCAAAAGAAAUAGUCUUGCGCUCAACCAGAAAGUCUGUAAUCAUUUUAAGGGUA | 1.27
GUUAACGGUCAUAGGCCAUGGGAACUAGGAGCGCCAUUUCGCUGCCAGUGAAGAAAUGAACAGAGAACAUCUGGGCCAGGCAGGCAUCGUAAGAAAUAGUCUUGCGCUCAACCAGAAAGUCUGUAAUCAUUUUAAGGGUG | 0.98
GUUAACGGUCAUAGGCCAUGGGAACUAGGAGCGCCAUUUCGCUGCCAGUGAAGAAAUGAACAAAGAAUAUCUGGGCCAGGCAGGCAUCAAAAGAAAUAGUCUUGCGCUCAACCAGAAAGUCUGUAAUCAUUUUAAGGGUA | 1.3
GUUAACGGUCAUAGGCCAUGGGAACUAGGAGCGCCAUUUCGCUGCCAGUGAAGAAAUGAACAAAGAAAAUCUGGGCCAGGCAGGCAUCAAAAGAAAUAGUCUUGCGCUCGACCAGAAAGUCUGUAAUCAUUUUAAGGGUA | 0.15
GUUAACGGUCAUAGGCCAUGGGAACUAGGAGCUCCAUUUCGCUGCCAGUGAAGAAAUGAACAAAGAAAAUCUGGGCCAGGCAGGCAUCAAAAGAAAUAGUCUUGCGCUCAACCAGAAAGUCUGUAGUCAUUUUAAGGGUA | 0.44
GUUAACGGUCAUAGGCCAUGGGAACUAGGAGCUCCAUUUCGCUGCCAGUGAAGAAAUGAACAAAGAAAAUCUGGGUCAGGCAGGCAUCAAAAGAAAUAGUCUCGCGCUCAACCAGAAAGUCUGUAAUCAUUUUAGGGGUA | 0.07
GUUAACGGUCAUAGGCCAUGGGAACUAGGAGCACCGUUUCGCUGCCAGUGAAGAAGUGAACGAAGAAAAUCUGGGCCAGGCAGGCAUCUAAAGAAAUAGUCUUGCGCUCAACCAGAAAGUCUGUAAUCAUUUUAAGGGUA | 1.36
GUUAACGGUCAUAGGCCAUGGGAACUAGGAGCACCGUUCCGCUGCCAGUGAAGAAAUGAACGAAGAAAAUCUGGGCCAGGCAGGCAUCAAAAGUAAUAGUCAUGCGCUCAACCAGAAAGUCUGUAAUCAUUUUAAGGGUA | 0.85
GUUAACGGUCAUAGGCCAUGGGAACUAGGAGCACCUUUUCGCUGCCAGUGAAGAAAUGAACAAAGAAAAUCUGGGCCAGGCAGGCAUCAAAAGAGAUAGUCUUGCGCUCAACCAGAAAGUCUGUAAUCAUUUUAAGGGUA | 1.2
GUUAACGGUCAUAGGCCAUGGGAACUAGGAGCACCUUUUCGCUGCCAUUGAAGAAAUGAACAAAGAAAAUCUGGGCCAGGCAGGCAUCAAAAGAAAUAGUCUUGCGCUCAACCAGAAAGUCUGUAAUCAUUUUAAGGGUA | 1.15

Variant | self-cleavage
GUUAACGGUCAUAGGCCAUGGGAACUAGGAGCACCAUUUCGCUGCCGGUGGAGAAAUGAACAAAGAAAAUCUGGGCCAGGCAGGCAUCAAGAGAAAUAGUCUUGCGCUCAUCCAGAAAGUCUGUAAUCAUUUUAAGGGUA | 0.09
GUUAACGGUCAUAGGCCAUGGGAACUAGGAGCACCAUUUCGCUGCCGGUGAAGAAAUGAGCAAAGAAAAUCUGGGCCAGGCAGGCAUCAAAAGAAAUAGUCUUGCGCUCAACCAGAAAGUCUGUAAUCAUUUUAAGGGUG | 0.48
GUUAACGGUCAUAGGCCAUGGGAACUAGGAGCACCAUUUCGCUGCCGGUGAAGAAAUGAACAAAGAAAAUCUGGGCCAGGCAGGCAUCAAAAGAAAUAGUCUUGCGCUCAGCCAGAAAGUCUGUAAUCAUUUUAAGGGUA | 0.06
GUUAACGGUCAUAGGCCAUGGGAACUAGGAGCACCAUUUCGCUGCCGGUGAAGAAAUGAACAAAGAAAAUCCGGGCCAGGCAGGCAUCAAAGGAAAUAGUCUUGCGCUCAACCAGAAAGUCUGUAAUCAUUUUAGGGGUA | 0.1
GUUAACGGUCAUAGGCCAUGGGAACUAGGAGCACCAUUUCGCUGCCUGUGAAGAAAUGAACAAAGAAAAUCUGGGCCAGGCAGGCAUCAAAAGAGAUAGUCUUGCGCUCAACCAGAAAGUCUGUAAUCAUUUUAAGGGUA | 1.02
GUUAACGGUCAUAGGCCAUGGGAACUAGGAGCACCAUUUCGCUGCCUGUGAAGAAAUGAACAAAGAAAAUCUGGGCCAGGCAGGCAUCAAAAGAAAUAGUCUUGCGCUCAACUAGAAAGUCUGUAAUCAUUUUAGGGGUA | 0.04
GUUAACGGUCAUAGGCCAUGGGAACUAGGAGCACCAUUUCGCUGCCAGUGGAGAAAUGAGCAAAGAAAAUCCGGGCCAGGCAGGCAUCAAAAGAAAUAGUCUUGCGCUCAACCAGAAAGUCUGUAAUCAUUUUAAGGGUA | 0.42
GUUAACGGUCAUAGGCCAUGGGAACUAGGAGCACCAUUUCGCUGCCAGUGGAGAAAUGAACAGAGAAAAUCUGGGCCAGGCAGGCAUCAAAAGAAAUAGUCUUGCGCUCAACCAGAAAGUCUGUAAUCAUUUUAAGGGUA | 1.3
GUUAACGGUCAUAGGCCAUGGGAACUAGGAGCACCAUUUCGCUGCCAGUGGAGAAAUGAACAAAGAAAAUCUGGGCCAGGCAGGCAUCAAAAGAAAUAGUCUUGCGCUCGACCAGAAAGUCUGUAGUCAUUUUAAGGGUA | 0.07
GUUAACGGUCAUAGGCCAUGGGAACUAGGAGCACCAUUUCGCUGCCAGUGGAGAAAUGAACAAAGAAAAUCUGGGCCAGGCAGGCAUCAAAAGAAAUAGCCUUGCGCUCAACCAGAAAGUCUGUAAUCAUUUUAAGGGUA | 1.81
GUUAACGGUCAUAGGCCAUGGGAACUAGGAGCACCAUUUCGCUGCCAGUGGAGAAAUGAACAAAGAAAAUCUGGGCCAGGCAGGCAUCAAAAGAAAUAGUCUUGCGCUCAACCAGAAAGUCUGUAAUCAUUUUAAGGGCA | 1.04
GUUAACGGUCAUAGGCCAUGGGAACUAGGAGCACCAUUUCGCUGCCAGUGUAGAAAUGAACAAAGAGAAUCUGGGCCAGGCAGGCAACAAAAGAAAUAGUCUUGCGCUCAACCAGAAAGUCUGUAGUCAUUUUAAGGGUA | 1.02
GUUAACGGUCAUAGGCCAUGGGAACUAGGAGCACCAUUUCGCUGCCAGUGAGGAAAUGAACGAAGAAAAUCUGGGCCAGGCAGGCAUCAAAAGAAAUAGUCCUGCGCUCAACCAGAAAGUCUGUAAUCAUUUUAAGGGUA | 1.43
GUUAACGGUCAUAGGCCAUGGGAACUAGGAGCACCAUUUCGCUGCCAGUGAGGAAAUGAACAAAGAAAGUCUGGGCCAGGCAGGCAUCAAGAGAAAUAGUCUUGCGCUCAACCAGAAAGUCUGUAAUCAUUCUAAGGGUA | 0.67
GUUAACGGUCAUAGGCCAUGGGAACUAGGAGCACCAUUUCGCUGCCAGUGAGGAAAUGAACAAAGAAAAUCUGGGCCAGGCGGGCAUCAAAAGAAAUAGUCUUGCGCUCAACCAGAAAGUCUGUAAUCAUUUUAAGGGUA | 0.47
GUUAACGGUCAUAGGCCAUGGGAACUAGGAGCACCAUUUCGCUGCCAGUGAGGAAAUGAACAAAGAAAAUCUGGGCCAGGCAGGCAUCAAAAGAAAUAGUCUUGCGCUCACCCAGAAAGUCUGUAAUCAUUUUAAGGGUA | 0.05
GUUAACGGUCAUAGGCCAUGGGAACUAGGAGCACCAUUUCGCUGCCAGUGAGGAAAUGAACAAAGAAAAUCUGGGCCAGGCAGGCAUCAAAAGAAACAGUCUUGCGCUCAACCAGAAUGUCUGUAGUCAUUUUAAGGGUA | 0.43
GUUAACGGUCAUAGGCCAUGGGAACUAGGAGCACCAUUUCGCUGCCAGUGAAGGAAUGAACAAAGAAAAUCUGGGCCAGGCAGGCAUCAAAAGAAAUAGUCUUGCGCUCAACCGGAAAGUCUGUAAUCAUUUUAGGGGUA | 0.39
GUUAACGGUCAUAGGCCAUGGGAACUAGGAGCACCAUUUCGCUGCCAGUGAAGAGAUGAACAAAGAAAAUCUGGGCCUGGCAGGCAUCAAAAGAAAUAGUCUUGCGCUCAACCAGAAAGUCUGUAAUCAUUUUAAGGGUA | 0.19
GUUAACGGUCAUAGGCCAUGGGAACUAGGAGCACCAUUUCGCUGCCAGUGAAGAGAUGAACAAAGAAAAUCUGGGCCAGGCAGGCAUCAAGAGAAAUAGUCUUGCGCCCUACCAGAAAGUCUGUAAUCAUUCUAAGGGUA | 0.01
